Measurements reported in PubChem BioAssay AID504339 (National Center for Advancing Translational Sciences (NCATS), 2011).
About 17,000 (4.4%) of roughly 390,000 compounds were called active. Inconclusive results, whose numbers are uncertain, are shown with a selection of clear calls. Calls come from the whole dose curve; as a rule, active = well fitted inhibition curve with a large enough effect; inconclusive = small, poorly fitted or top-dose-only effect; inactive = no such curve, though single readings can be large or run the other way. Potencies of inconclusive entries are doubtful fits and often do not repeat.

The molecules below were run against Lysine-specific demethylase 4A (Homo sapiens) (UniProt O75164) (assay: qHTS Assay for Inhibitors of JMJD2A-Tudor Domain). Conditions: AlphaScreen JMJD2A-Tudor / H3K4me3 peptide binding; activity change, negative = inhibition: at 114 µM (top of the series).
% is set by controls: 0 for no effect and ±100 for the full control effect; potency is the fitted concentration of half-maximal effect; tags give direction and shape of the fitted curve.
Note: nearly all actives have a fitted effect of over 50% in size.

Sequence of UniProt O75164 (O75164 whole entry, looked up, the tested form may be a part): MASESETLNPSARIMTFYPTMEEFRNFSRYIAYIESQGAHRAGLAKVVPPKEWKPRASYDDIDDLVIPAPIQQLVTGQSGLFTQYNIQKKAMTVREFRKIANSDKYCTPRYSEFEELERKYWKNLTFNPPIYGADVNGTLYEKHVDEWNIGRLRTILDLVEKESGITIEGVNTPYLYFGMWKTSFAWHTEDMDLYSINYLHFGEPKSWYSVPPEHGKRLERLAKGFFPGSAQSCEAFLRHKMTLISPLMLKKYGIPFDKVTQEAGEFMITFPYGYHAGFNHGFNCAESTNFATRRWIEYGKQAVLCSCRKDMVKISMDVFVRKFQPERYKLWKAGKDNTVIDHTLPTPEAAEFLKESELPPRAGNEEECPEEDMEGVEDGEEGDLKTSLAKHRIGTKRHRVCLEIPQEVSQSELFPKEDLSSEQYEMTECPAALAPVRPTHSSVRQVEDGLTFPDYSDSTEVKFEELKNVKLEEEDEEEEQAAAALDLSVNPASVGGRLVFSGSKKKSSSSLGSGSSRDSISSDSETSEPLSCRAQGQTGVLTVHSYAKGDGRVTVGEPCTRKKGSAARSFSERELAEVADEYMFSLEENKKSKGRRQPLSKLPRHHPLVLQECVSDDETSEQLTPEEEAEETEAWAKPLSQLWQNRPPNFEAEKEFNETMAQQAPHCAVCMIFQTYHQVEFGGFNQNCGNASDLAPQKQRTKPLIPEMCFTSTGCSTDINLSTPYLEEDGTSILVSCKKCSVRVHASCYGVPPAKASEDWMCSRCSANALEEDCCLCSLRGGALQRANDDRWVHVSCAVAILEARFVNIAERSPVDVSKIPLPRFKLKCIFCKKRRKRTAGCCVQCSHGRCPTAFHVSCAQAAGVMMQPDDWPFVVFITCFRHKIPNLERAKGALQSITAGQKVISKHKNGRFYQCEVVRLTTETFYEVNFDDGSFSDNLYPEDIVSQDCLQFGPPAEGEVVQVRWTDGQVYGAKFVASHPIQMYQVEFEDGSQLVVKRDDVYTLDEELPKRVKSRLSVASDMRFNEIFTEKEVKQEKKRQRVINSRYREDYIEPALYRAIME

Potency, active:
Cc1ccc(SCCCn2cncn2)cc1 44.7 µM, Cc1nc2ccccc2c(=O)n1NC(=O)c1ccc([N+](=O)[O-])cc1 8.91 µM, CCN(CC)c1ccc(/C=N/NC(=S)NC)c(O)c1 44.7 µM, Cc1ccc(CN2CCN(/N=C/c3ccc(Cl)c([N+](=O)[O-])c3)CC2)cc1 44.7 µM, O=C(CN1CCCCCC1)N/N=C/c1cccc(Cl)c1Cl 10 µM

Potency, inconclusive:
CCCCn1c(SCC(=O)Nc2cccc(OC)c2)nc2ccc(N3CCOCC3)cc2c1=O 25.1 µM [inhibitor, full curve], CN1CCN(c2ccc(NC(=O)C(C)(c3ccccc3)c3ccccc3)cc2)CC1 89.1 µM [inhibitor, partial curve], Cc1ccc(NC2c3ncccc3C(=O)N2Cc2ccco2)c(C)c1 (stereo unspecified) 70.8 µM [inhibitor, partial curve, poor fit], O=C(CCn1nc(-c2ccc(Cl)cc2)ccc1=O)NCCCN1CCCCCC1 79.4 µM [inhibitor, single point], COc1ccc(NC(=O)CSc2nnc(Cc3cccn3C)n2-c2ccc(C)cc2)cc1OC 50.1 µM [inhibitor, partial curve], Cc1cc(SCC(=O)N/N=C/c2ccc(O)c(O)c2)nc2ccccc12 56.2 µM [inhibitor, partial curve], COc1ccccc1C(=O)COC(=O)CSCC(=O)Nc1cc(C)on1 100 µM [inhibitor, single point], CNc1cc(N2CCCCCC2)ccc1[N+](=O)[O-] 35.5 µM [inhibitor, partial curve], COC(=O)C1=C(C)NC(=O)NC1c1ccc(N2CCC(c3ccccc3)=N2)cc1 (stereo unspecified) 39.8 µM [inhibitor, single point], Cc1ccc(Cn2c(CN3CCC(C(=O)NCc4cccnc4)CC3)cc3ccccc32)cc1 56.2 µM [inhibitor, partial curve], COc1ccc(/C=N/NC(=O)c2[nH]c3ccc(Cl)cc3c2-c2ccccc2)c(C(=O)O)c1OC 56.2 µM [inhibitor, partial curve], Cn1cccc1/C=C1\SC(=O)N(CC(=O)Nc2ccc(F)cc2)C1=O 3.16 µM [inhibitor, full curve], Cn1c(N)c(C(=O)COC(=O)c2cc(C3CC3)nc3ccccc23)c(=O)n(Cc2ccccc2)c1=O 56.2 µM [inhibitor, partial curve], O=S(=O)(c1cccc2nsnc12)N1CCN(c2ccc(F)cc2)CC1 56.2 µM [inhibitor, partial curve], O=C(CNc1cccc2ccccc12)N/N=C/C(Br)=C/c1ccccc1 35.5 µM [inhibitor, partial curve], CCN(CC)CCN(C(=O)c1ccc2c(c1)CCCC2)c1nc2cc(OC)c(OC)cc2s1 39.8 µM [inhibitor, partial curve], N#Cc1nc(COc2ccccc2)oc1N1CCCCC1 89.1 µM [inhibitor, partial curve], O=C(c1cc(F)c(F)cc1Cl)N1CCN(c2ccc([N+](=O)[O-])c3ncccc23)CC1 89.1 µM [inhibitor, single point]

Activity change, negative = inhibition, inactive:
Cc1ccc(C(=O)NC(C)C2CC3CCC2C3)c(C)c1 (stereo unspecified) 14.3%, C/C(=C/Cc1c(O)cc2oc(C)cc(=O)c2c1O)COC1OC(CO)C(O)C(O)C1O (stereo unspecified) -26.2%, O=C(O/N=C/c1ccc(Cl)cc1)C1CCCCC1 15.6%, O=C(Nc1ccccc1C(F)(F)F)C1(S(=O)(=O)c2ccc(Cl)cc2)CC1 -2.05%, CCN(CC)CC(O)CN(c1ccccc1)S(=O)(=O)c1ccc2ccccc2c1 (stereo unspecified) -18.8%, CCN(CCN(C)C)C(=O)Cn1ncc2c([nH]c3ccc(C)cc32)c1=O 1.29%, CN(C)Cc1c[nH]c2nc[nH]c(=O)c12 -20.7%, CCOC(=O)C1CCCN(C(=O)Cn2ncc3c(=O)oc4ccc(C)cc4c32)C1 (stereo unspecified) -15.3%, COc1ccccc1CCNC(=O)Cn1ccc2cc(S(=O)(=O)N3CCCCC3)ccc21 -21.7%, CCCC(=O)Nc1nnc(SCc2cc(=O)n3ccccc3n2)s1 1.95%, COc1ccc(NS(=O)(=O)c2ccc(OC)c(OC)c2)cc1OC -19.1%, CC(C)OP(=O)(OC(C)C)C1(O)C(=O)Nc2ccc(Br)cc21 (stereo unspecified) 1.88%, CCOc1ccc(CNC(=O)CN2C(=O)C(c3ccccc3)Oc3cccnc32)cc1 (stereo unspecified) -23.6%
